The values below come from the supplement of paper PMC9446081.

SMILES strings stand for the structures. Screen size: about 39,000 compounds; about 220 (0.56%) showed activity. This is one part of the list.
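Note: static incubation at 37 °C against the wild-type strain, values averaged over two biological replicates.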

The test concerns Escherichia coli K-12 BW25113. Nature of the test: relative growth (OD600 normalised to plate interquartile mean) (fraction); higher = less growth inhibition, active = 0.2 or less. The conditions noted are these: 50 µM; LB; incubation time: overnight (16-24 h).
For `COc1ccc(CN(C)C[C@@H]2OCCCC[C@H](C)Oc3ccc(NC(=O)Nc4ccccc4)cc3C(=O)N([C@H](C)CO)C[C@H]2C)cc1`, the relative growth is inactive: 0.987. To `CCCNC(=O)N1C[C@H](O)COC[C@@H]2O[C@H](CC(=O)NCCCN3CCOCC3)CC[C@H]21` belongs inactive: 1.

Regarding `O=C(C[C@H]1C[C@H]2c3cc(NC(=O)Cc4ccncc4)ccc3O[C@H]2[C@H](CO)O1)NCCN1CCCCC1`, the relative growth is inactive: 1.02.

For the molecule `C[C@H](CO)N1C[C@H](C)[C@H](CN(C)S(=O)(=O)c2cccs2)OCCCC[C@H](C)Oc2ccc(NC(=O)Nc3ccc4c(c3)OCO4)cc2C1=O`, the relative growth is inactive: 0.978. To `O=C(O[C@H](Cc1ccc(O)c(O)c1)C(=O)O)[C@H]1[C@H](C(=O)O[C@@H](Cc2ccc(O)c(O)c2)C(=O)O)[C@H](c2ccc(O)c(O)c2)[C@@H]1c1ccc(O)c(O)c1` belongs inactive: 1.01; to `CCOC(=O)c1cn2cn[nH]c2nc1=O`, inactive: 0.907; to `CCNC(=O)C[C@@H]1CC[C@@H]2[C@@H](COc3ccc(NS(=O)(=O)c4ccccc4C)cc3C(=O)N2C)O1`, inactive: 0.987. Regarding `C[C@@H]1CCCCO[C@@H](CN(C)C(=O)Nc2cccc3ccccc23)[C@H](C)CN([C@H](C)CO)C(=O)c2cc(N(C)C)ccc2O1`, the relative growth is inactive: 1.

For the molecule `C[C@H](CO)N1C[C@H](C)[C@H](CN(C)C(=O)C2CCC2)Oc2cc(-c3ccc(C(=O)N(C)C)cc3)ccc2S1(=O)=O`, the relative growth was inactive: 1.01. In the case of `C=C1CC23CC1(O)CCC2C12C=CC(O)C(C)(C(=O)O1)C2C3C(=O)O` (stereo not drawn), the relative growth was inactive: 1.02. Consider `COc1cc2c(cc1OC)C([C@H](C(=O)N(CCc1ccc(OC)c(OC)c1OC)CCc1ccc(OC)c(OC)c1OC)c1ccccc1)=NCC2`, for which the relative growth is inactive: 1.01. For the molecule `C[C@H]1CN([C@@H](C)CO)C(=O)c2cc(NS(C)(=O)=O)ccc2O[C@H]1CN(C)S(=O)(=O)c1cn(C)cn1`, the relative growth was inactive: 1.01. For the molecule `S=C1NCN(CCc2ccccc2)CN1`, the relative growth was inactive: 1.01. To `COC(=O)CC[C@H]1CCCNC1` belongs inactive: 0.98. Take `C[C@@H]1CCCCO[C@@H](CN(C)Cc2ccc(C(=O)O)cc2)[C@@H](C)CN([C@@H](C)CO)C(=O)c2cc(NC(=O)Nc3ccc4c(c3)OCO4)ccc2O1`: the relative growth is inactive: 1.02. On to `COc1ccc(S(=O)(=O)Nc2ccc3c(c2)CC(=O)N([C@H](C)CO)C[C@H](C)[C@@H](CN(C)C)O3)cc1`, for which the relative growth is inactive: 0.998. As to `CC1=NN2C(=NN[C@@]2(C)c2ccccc2)NC1=O`, the relative growth is inactive: 0.966.

Turning to `Cc1cc(C)c2cc3c(nc2c1)NCC3`, the relative growth is inactive: 0.601.
